Out of some 350,000 compounds screened, about 7,000 (2%) were called active. Inconclusive results, whose numbers are uncertain, are shown with a selection of clear calls. Cut-off read from the data, not from the text of the source: active = activation above about 40%; inconclusive = no clear call, values can overlap the other calls; inactive = below that.
Experiment: raisers of Bmi1 knock-in reporter signal – mouse ES cells, Bmi1 luciferase knock-in, single point, esBAF inhibitor project, primary screen (AID 602393);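 note: 0% = median of the plate's neutral control wells and 100% = double that signal; a rise in the Bmi1 reporter signal indicates esBAF inhibition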
Conditions: 24 h, at 12.5 µM, stronger effect = higher value, 100% = twice the neutral-well signal
With `O=c1sc(N2CCN(c3ccccc3F)CC2)nc2ccsc12` the reporter increase was active: 68.9%.
With `COc1cc(SC)ccc1C(=O)NC1CCCCC1` the reporter increase was active: 54.1%.
In the case of `O=C(NCC1CCCO1)C(=O)N/N=C/c1ccc(OCc2ccccc2Cl)cc1` (centres undefined), the reporter increase is reported as inconclusive: 41.4%.
With `Clc1c(-c2ccccc2)nc2ccccn12` the reporter increase was inconclusive: 60.3%.
In the case of `Clc1cccc(/C=N/Nc2ncnc3ccccc23)c1`, the reporter increase is reported as active: 53.4%.
In the case of `COCC(=O)Nc1ccc2c(c1)C(=O)N(C)[C@H]1CC[C@@H](CC(=O)NCCc3ccncc3)O[C@H]1CO2`, the reporter increase is reported as inactive: -1.17%.
With `O=C(N/N=C/c1cccc(NC(=O)c2ccc(Cl)cc2)c1)c1ccc(O)cc1` the reporter increase was inconclusive: 40.2%.
In the case of `Cc1cc(NC(=O)Nc2ccccc2F)ccc1Br`, the reporter increase is reported as inconclusive: 47.8%.
In the case of `CC1CCC(NC(=O)Cn2c(=O)[nH]c3ccsc3c2=O)CC1` (centres undefined), the reporter increase is reported as inconclusive: 48.6%.
For `O=C(NCc1ccccc1)c1cc(-c2cccs2)on1`, the reporter increase was inconclusive: 43.7%.
For `C[C@@H]1CN([C@@H](C)CO)C(=O)c2cccc(NS(C)(=O)=O)c2O[C@@H]1CN(C)S(=O)(=O)c1ccc(Cl)cc1`, the reporter increase was inactive: -3.14%.
For `Cc1cccc(N/N=C/c2ccc(C)s2)c1`, the reporter increase was active: 73.5%.
With `CC(=O)c1cccc(NC(=O)c2ccc3c(c2)OCO3)c1` the reporter increase was inconclusive: 43.2%.
With `COc1ccccc1Nc1ncnc2c1cnn2-c1cccc(C)c1` the reporter increase was inconclusive: 29.4%.
With `C[C@@H]1CCCCO[C@H](CN(C)C(=O)NC2CCCCC2)[C@H](C)CN([C@H](C)CO)C(=O)c2cc(NS(=O)(=O)c3cccs3)ccc2O1` the reporter increase was inactive: 4.79%.
For `O=C(C[C@H]1C[C@@H]2c3cc(NC(=O)Nc4ccc(C(F)(F)F)cc4)ccc3O[C@@H]2[C@@H](CO)O1)NCc1ccc2c(c1)OCO2`, the reporter increase was inactive: -9.64%.
For `CC(C)C[C@@H](CSc1ccc(Br)cc1)N1CCN(C)CCC1=O`, the reporter increase was active: 43.8%.
For `CC1CCC(NC(=O)c2ccc3nc[nH]c3c2)CC1` (centres undefined), the reporter increase was inconclusive: 43.2%.
For `CCC/C(=N\NC(=O)c1cccc(C)c1)c1ccccc1`, the reporter increase was inconclusive: 40.7%.
For `CCCC(=O)N1CCN(c2nc3ccc(Br)cc3s2)CC1`, the reporter increase was active: 66%.
In the case of `COc1ccc(/C=C/C(=O)Nc2cccnc2Cl)cc1`, the reporter increase is reported as inconclusive: 63.9%.
For `O=S(=O)(N[C@H]1CC[C@@H](CCn2cc(-c3ccc(F)cc3)nn2)O[C@H]1CO)c1ccccc1F`, the reporter increase was inactive: 2.23%.
For `CC(C)OP(=O)(c1ccc(N(C)C)cc1)C(Nc1ccccc1)c1ccccc1` (centres undefined), the reporter increase was inactive: -6.46%.
In the case of `COc1ccc(NC(=O)c2ccc(C)cc2Cl)c([N+](=O)[O-])c1`, the reporter increase is reported as inconclusive: 40.9%.
For `COC(=O)c1sc2nc3c(cc2c1N)COC(C)(C)C3`, the reporter increase was inconclusive: 56.5%.
With `COc1ccc(-c2csc(Nc3ncccn3)n2)cc1C` the reporter increase was inconclusive: 42.9%.
In the case of `O=C(Nc1ccc(Cl)cn1)c1cc2c(s1)-c1ccccc1OC2`, the reporter increase is reported as inconclusive: 44.5%.
In the case of `CCCNC(=O)Nc1ccc2c(c1)C(=O)N(C)C[C@@H](OC)[C@@H](C)CN(CCC)[C@H](C)CO2`, the reporter increase is reported as inactive: -3.51%.
With `C/C(=N\NC(=O)c1ccc(O)cc1)c1cc2ccccc2o1` the reporter increase was inconclusive: 40.8%.
In the case of `CCOC(=O)/C=C/c1cnn(-c2ccccc2)c1`, the reporter increase is reported as inconclusive: 41.2%.
With `CC(C)c1ccc(NC(=O)NC2CCCCC2)cc1` the reporter increase was inconclusive: 44.6%.
In the case of `O=C(NCC[C@@H]1CC[C@@H](NC(=O)C2CCOCC2)[C@H](CO)O1)c1ccc(F)cc1`, the reporter increase is reported as inactive: -8.6%.
In the case of `Cc1noc(C)c1S(=O)(=O)Nc1ccc2c(c1)C(=O)N([C@@H](C)CO)C[C@H](C)[C@@H](CN(C)C(=O)Nc1ccc(C(F)(F)F)cc1)OCCCC[C@@H](C)O2`, the reporter increase is reported as inactive: -1.36%.
For `O=C(C[C@@H]1CC[C@H]2[C@@H](COC[C@H](O)CN2S(=O)(=O)c2ccccc2)O1)NCC1CCCCC1`, the reporter increase was inactive: 1.15%.
In the case of `CC(C)(Oc1ccc(Cl)cc1)C(=O)Nc1ccc2oc(=O)ccc2c1`, the reporter increase is reported as inactive: -11.9%.
In the case of `Cc1oc(C(C)(C)C)cc1C(=O)Nc1ccc2c(c1)OCO2`, the reporter increase is reported as inconclusive: 42.8%.
In the case of `C[C@@H]1CCCCO[C@H](CN(C)C(=O)Nc2ccc3c(c2)OCO3)[C@H](C)CN([C@@H](C)CO)C(=O)c2cc(NC(=O)CCC(F)(F)F)ccc2O1`, the reporter increase is reported as inactive: 3.06%.
For `Cc1ccnc(NC(=O)CCNC(=O)c2ccccc2Cl)c1`, the reporter increase was active: 46.1%.
In the case of `N#C[C@H]1[C@@H](c2ccccc2)[C@H](CO)N1S(=O)(=O)Cc1ccccc1`, the reporter increase is reported as inactive: -3.55%.
For `Cc1ccc(-n2c(C)cc(/C=C3\SC(=O)NC3=O)c2C)cc1`, the reporter increase was inconclusive: 60.1%.
With `CCN(CC)CCN1C(=O)C(=O)/C(=C(/O)c2cnn(-c3ccccc3)c2C)C1c1ccc(C)o1` (centres undefined) the reporter increase was inconclusive: 35.3%.
In the case of `Brc1ccc(-c2cn3cccnc3n2)cc1`, the reporter increase is reported as inconclusive: 42.9%.
With `Cc1ccc(-c2nnn3c2nc(Cl)c2ccccc23)cc1` the reporter increase was inconclusive: 47.2%.
In the case of `COCC(=O)N1C[C@@H]2[C@H](c3ccccc31)[C@H](CO)N2Cc1ccccc1F`, the reporter increase is reported as inactive: -5.04%.
In the case of `COc1ccc(OC)c(/C=N/N(C)c2ccccc2)c1`, the reporter increase is reported as active: 73.4%.
In the case of `CCNC(=O)C[C@H]1CC[C@H]2[C@@H](COc3ccc(NC(=O)c4ccccc4Cl)cc3C(=O)N2C)O1`, the reporter increase is reported as inactive: 0.672%.
For `Cc1cccc(-c2noc(CCC(=O)N3CCN(c4cc(C)ccc4C)CC3)n2)c1`, the reporter increase was active: 62.9%.
In the case of `N#Cc1cccc(-c2ccc3c(c2)[C@@H]2[C@@H](CCN2C(=O)c2ccncc2)[C@@H](CO)N3)c1`, the reporter increase is reported as active: 61.4%.
In the case of `N#Cc1ccc(Nc2nc(-c3ccccc3)cs2)cc1`, the reporter increase is reported as active: 73.6%.
With `O=C(COc1ccccc1)Nc1cc(Cl)ccc1Cl` the reporter increase was inconclusive: 44.7%.
For `CC(C)Cn1cnc2c(SCc3ccccc3Cl)nc(N)nc21`, the reporter increase was active: 54.5%.
For `O=C(Nc1nc(-c2cccnc2)cs1)c1cccc([N+](=O)[O-])c1`, the reporter increase was inconclusive: 42.4%.
For `CCOC(=O)c1cnc2c(c(C)nn2C)c1Oc1cc(Cl)cc(Cl)c1`, the reporter increase was inactive: -5.67%.
In the case of `Cc1ccc(N/C=C/C(=O)c2ccco2)c(O)c1`, the reporter increase is reported as inconclusive: 40.1%.
